Test results as given in PubChem BioAssay AID504466 (National Center for Advancing Translational Sciences (NCATS), 2011).
In all, about 330,000 compounds went through this assay and about 4,200 (1.3%) were called active. The shares of active, inactive and inconclusive entries below differ from those in the screen. The call rests on the fitted dose curve; in most records, active means well fitted activation curve with a large enough effect; inconclusive means small, poorly fitted or top-dose-only effect; inactive means no such curve, though single readings can be large or run the other way. A potency beside an inconclusive call is a rough fit, not a confirmed value.

assay: qHTS screen for small molecules that induce genotoxicity in human embryonic kidney (HEK293T) cells expressing luciferase-tagged ELG1; conditions: HEK293T ELG1-luciferase reporter, luminescence, 16 h; series mostly up to 46 µM; activity change, positive = activation: at the top concentration; further: nearly all actives have a fitted effect of over 60% in size; on activity change, positive = activation: % of control where 0% means no effect
In short: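 Luminescence read-out: rising ELG1-luciferase signal, reflecting elevated ELG1 protein under genetic stress, flags genotoxic compounds. Cells were treated for 16 hr at 37 °C before ONE-Glo detection.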
Potency means the concentration at half of the fitted maximal effect; tags describe the fitted curve by direction and shape.

SMILES	Potency	activity change, positive = activation
Cc1ccc(C(=O)O/N=C2\CCSc3ccc(C)cc32)cc1	inconclusive: 25.9 µM [activator, single point]	–
CCCCNC1=C(Br)C(=O)CC(C)(C)C1	inconclusive: 29.1 µM [activator, single point]	–
C=C(C)CSc1nc2nc(C)c(Br)cc2[nH]1	inconclusive: 16.4 µM [activator, partial curve]	–
O=C(N/N=C/C=C/c1ccccc1)c1n[nH]c2c1CCC2	inconclusive: 5.8 µM [activator, partial curve]	–
Cc1cc(Cl)ccc1NC(=S)Nc1ccccn1	–	inactive: 5.78%
O=C(/C=C/Nc1ccc(Br)cc1F)c1ccco1	active: 0.326 µM	–
O=C(Nc1ccncc1)c1ccc(N2CCCC2=O)cc1	inconclusive: 20.6 µM [activator, partial curve, poor fit]	–
O=C(OCc1cc(=O)n2ccsc2n1)c1ccc(O)cc1O	inconclusive: 25.9 µM [activator, single point]	–
Cc1occc1C(=O)N/N=C/c1ccc(-c2ccccc2)cc1	active: 0.164 µM	–
Cc1cc(C(=O)CSc2ncccn2)c(C)n1Cc1ccco1	inconclusive: 2.06 µM [activator, partial curve]	–
CN(C)CCCNC(=O)C[C@H]1C[C@H](C(=O)N2CCCCC2)[C@@]2(C)c3[nH]c4cc(-c5ccco5)ccc4c3CCN2C1=O	inconclusive: 29.1 µM [activator, partial curve, poor fit]	–
C/C(CC(=O)Nc1ccc(N(C)C)cc1)=N\NC(=O)c1ccccc1O	–	inactive: -1.38%
CCN(CC)CCCNC(=S)N1CCN(c2nc(-c3ccccc3)cs2)CC1	–	inactive: 2.69%
O=C(C(Cc1ccccc1)n1cccc1)N1CCCCCC1 (stereo unspecified)	inconclusive: 23.1 µM [activator, single point]	–
COc1cc(/C=C2\SC(c3ccc(C)cc3)=NC2=O)cc(OC)c1O	–	inactive: 2.69%
O=c1[nH]c(/C=C/c2ccccc2Cl)nc2ccccc12	active: 2.06 µM	–
Cc1ccc(C(=O)CCS(=O)(=O)c2ccc(F)cc2)cc1	–	inactive: 10.3%
Cc1cccc(Nc2nc(-c3ccc(O)cc3O)cs2)n1	inconclusive: 20.6 µM [activator, single point]	–
Cc1cc(CNC(=O)c2ccc3nc(Cc4ccccc4F)oc3c2)nn1C	inconclusive: 8.2 µM [activator, partial curve]	–
Fc1cccc(-c2cc3nc4c(c(N5CCC6(CC5)OCCO6)n3n2)CCCC4)c1	inconclusive: 14.1 µM [activator, single point]	–
Cc1cccc2c1OCC/C2=N\NC(=O)COc1ccccc1	inconclusive: 16.4 µM [activator, partial curve]	–
Cc1cc2nc(/C(C#N)=C/c3ccncc3)[nH]c2cc1C	inconclusive: 20.6 µM [activator, partial curve, poor fit]	–
CN(CC(=O)N1CCCCCC1)S(=O)(=O)c1ccccc1	inconclusive: 14.6 µM [activator, single point]	–

SMILES	Potency	activity change, positive = activation
O=C(NCc1ccc(F)cc1)Nc1ccccc1	inconclusive: 20.6 µM [activator, partial curve]	–
CCOc1ccccc1N(CC(=O)N1CCOCC1)S(=O)(=O)c1ccccc1	–	inactive: -0.251%
COc1ccc(-c2cc(-c3ccccc3O)[nH]n2)cc1OC	active: 20.6 µM	–
CC(=O)Nc1ccc(OCC=C(Cl)Cl)cc1	inconclusive: 29.1 µM [activator, partial curve, poor fit]	–
COc1ccc(-c2nc3ccc([N+](=O)[O-])cc3[nH]2)cc1	inconclusive: 1.3 µM [activator, partial curve]	–
O=c1c2ccccc2nnn1CSc1nnc2sc3ccccc3n12	inconclusive: 1 µM [activator, partial curve, poor fit]	–
O=C(Nc1ccc(Cl)c(C(F)(F)F)c1)c1ccco1	inconclusive: 18.4 µM [activator, partial curve, poor fit]	–
COc1ccc(Nc2n[nH]c(C)c2[N+](=O)[O-])cc1	inconclusive: 14.6 µM [activator, partial curve, poor fit]	–
O=C(Nc1ccccc1C(=O)NC1CC1)c1ccccc1	–	inactive: 2.44%
CC(=O)Oc1ccc(C(=O)Nc2nnc(C)s2)cc1	inconclusive: 16.4 µM [activator, partial curve]	–
C=CCn1cccc(C(=O)Nc2ccc(C)c(C)c2)c1=O	inconclusive: 3.66 µM [activator, full curve, poor fit]	–
O=C(Cc1c(F)cccc1Cl)Nc1ccncc1	–	inactive: -7.08%
O=C1OC(c2ccc3c(c2)OCO3)N(C(=O)c2ccc(Cl)c(Cl)c2)c2ccccc21 (stereo unspecified)	inconclusive: 7.08 µM [activator, full curve, poor fit]	–
Cc1cccc(Nc2ncnc(N)n2)c1	inconclusive: 23.1 µM [activator, partial curve, poor fit]	–
COc1ccccc1-n1c(C)cc(/C=C2/C(=N)N3C(=NC2=O)SN=C3S(C)(=O)=O)c1C	inconclusive: 7.3 µM [activator, partial curve]	–
COc1ccc(NS(=O)(=O)c2ccc(C)c(C(=O)NCC(c3ccco3)N(C)C)c2)cc1 (stereo unspecified)	–	inactive: -1.69%
N/C(=N\OC(=O)c1cccc2ccccc12)c1cccnc1	inconclusive: 20.6 µM [activator, single point]	–
COCC(C)n1c(C)cc(C(=O)Cn2nc(C(=O)O)c3ccccc3c2=O)c1C (stereo unspecified)	inconclusive: 29.1 µM [activator, single point]	–
Oc1ccccc1/C=N/c1c(-c2ccco2)nc2ccccn12	inconclusive: 14.6 µM [activator, partial curve, poor fit]	–
O=C1CCCCN1CCc1c[nH]c2ccccc12	inconclusive: 25.9 µM [activator, partial curve, poor fit]	–
CCN(CC)C(=O)[C@H]1CC(CC(=O)NC(C)(C)C)C(=O)N2CCc3c([nH]c4ccccc34)[C@]12C (stereo partly specified)	–	inactive: 1.69%
O=C(c1ccc(Br)cc1)c1cc2ccc(O)cc2oc1=O	–	inactive: 2.39%
COc1ccccc1NC(=O)Nc1nnc(CC(=O)Nc2ccccc2)s1	inconclusive: 25.9 µM [activator, single point]	–
